Data on 45 compounds can be found in patent US20240254117A1, “PYRIMIDO-HETEROCYCLIC COMPOUNDS, AND PREPARATION METHOD THEREFOR AND USE THEREOF” (SHANGHAI RINGENE BIOPHARMA CO., LTD., priority 2020, published 2024).

Molecules are shown by their SMILES. A value given as a limit tells only on which side of the number the result lay.

For this assay, the target named is T1, KRAS^G12C/SOS1 (Homo sapiens, UniProt Q07889).
T1 sequence (Q07889 1-1333): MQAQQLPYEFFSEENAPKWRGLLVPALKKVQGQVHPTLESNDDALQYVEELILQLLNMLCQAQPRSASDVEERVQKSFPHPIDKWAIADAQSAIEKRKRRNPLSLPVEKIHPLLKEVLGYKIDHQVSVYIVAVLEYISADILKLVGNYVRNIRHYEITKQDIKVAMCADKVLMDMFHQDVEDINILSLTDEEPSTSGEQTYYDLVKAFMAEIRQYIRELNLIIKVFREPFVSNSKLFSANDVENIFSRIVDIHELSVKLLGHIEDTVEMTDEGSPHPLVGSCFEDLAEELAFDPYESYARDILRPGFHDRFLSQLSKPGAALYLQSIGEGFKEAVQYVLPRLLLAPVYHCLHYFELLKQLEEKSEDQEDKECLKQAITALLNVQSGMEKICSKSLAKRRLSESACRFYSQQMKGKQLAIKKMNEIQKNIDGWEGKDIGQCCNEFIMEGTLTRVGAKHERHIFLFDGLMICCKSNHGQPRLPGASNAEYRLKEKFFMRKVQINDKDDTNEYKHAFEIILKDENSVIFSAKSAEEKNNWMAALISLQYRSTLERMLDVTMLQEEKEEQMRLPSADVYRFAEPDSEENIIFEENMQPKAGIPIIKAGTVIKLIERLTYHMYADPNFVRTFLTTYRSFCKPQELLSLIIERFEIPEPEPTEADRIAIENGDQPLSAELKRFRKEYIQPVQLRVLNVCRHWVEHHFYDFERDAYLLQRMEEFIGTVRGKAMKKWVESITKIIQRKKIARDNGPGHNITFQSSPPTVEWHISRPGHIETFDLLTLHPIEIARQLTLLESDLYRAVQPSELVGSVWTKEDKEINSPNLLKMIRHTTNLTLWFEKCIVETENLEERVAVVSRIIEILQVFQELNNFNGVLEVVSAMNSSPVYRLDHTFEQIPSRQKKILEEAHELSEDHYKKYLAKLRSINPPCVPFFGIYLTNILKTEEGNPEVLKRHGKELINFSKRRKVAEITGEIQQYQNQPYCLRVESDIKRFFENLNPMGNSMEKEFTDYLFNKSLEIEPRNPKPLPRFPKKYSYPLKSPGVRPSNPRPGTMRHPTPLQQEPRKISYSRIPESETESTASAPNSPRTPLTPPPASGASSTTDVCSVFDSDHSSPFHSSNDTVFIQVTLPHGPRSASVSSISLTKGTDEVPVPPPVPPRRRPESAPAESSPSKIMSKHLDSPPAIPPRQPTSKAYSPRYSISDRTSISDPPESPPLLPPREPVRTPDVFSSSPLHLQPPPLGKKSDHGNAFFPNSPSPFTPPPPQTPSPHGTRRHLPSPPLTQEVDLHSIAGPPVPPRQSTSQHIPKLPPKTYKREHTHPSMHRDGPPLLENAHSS
Description: biochemical.
By IC50 is commonly meant the concentration that gives 50% inhibition. Read a low IC50 as inhibition by little substance. Regarding `Cc1nc(N[C@H](C)c2cc(N)cc(C(F)(F)F)c2)c2cc(NC3CCOCC3)c(=O)n(C)c2n1` [Example 44], the 50% inhibitory concentration (IC50) came to 385 nM.

In turn, `Cc1nc(N[C@H](C)c2cc(N)cc(C(F)(F)F)c2)c2cc(NCC3CCOCC3)c(=O)n(C)c2n1` [Example 45] yielded an IC50 of over 100 nM.

With `Cc1nc(N[C@H](C)c2cccc(C(F)(F)F)c2)c2cc(NC3CCOCC3)c(=O)n(C)c2n1` [Example 46], the half-maximal inhibitory concentration (IC50) was over 100 nM.

`Cc1nc(N[C@H](C)c2cccc(C(F)(F)F)c2)c2cc(NCC3CCOCC3)c(=O)n(C)c2n1` [Example 47]: the IC50 was over 100 nM.

The compound `Cc1nc(N[C@H](C)c2cc(N)cc(C(F)(F)F)c2)c2cc(OC3CCOCC3)c(=O)n(C)c2n1` [Example 48, (R)-4-((1-(3-amino-5-(ethyltrifluoromethyl)phenyl)ethyl)amino)-2,8-dimethyl-6-((tetrahydro-2H-pyran-4-yl)oxo) pyridine [2,3-d] pyrimidin-7 (8H)-one] returned an IC50 of 330 nM.

Take `Cc1nc(N[C@H](C)c2ccc(-c3ccccc3CN3CCCC3)s2)c2cc(-c3ccc(F)cc3)c(=O)n(C)c2n1` [Example 49, (R)-6-(4-Fluorophenyl)-2,8-dimethyl-4-((1-(5-(2-(pyrrolin-1-ylmethyl)phenyl)thiophen-2-yl)ethyl)amino) pyridine [2,3-d] pyrimidin-7 (8H)-one]: the IC50 is 172 nM.

The compound `Cc1nc(N[C@H](C)c2ccc(-c3ccccc3CN3CCCC3)s2)c2cc(N3CCOCC3)c(=O)n(C)c2n1` [Example 50] had a half-maximal inhibitory concentration (IC50) of 17 nM.

`Cc1nc(N[C@H](C)c2ccc(-c3ccccc3CN3CCCC3)s2)c2cc(N3CCN(C4CCCC4)CC3)c(=O)n(C)c2n1` [Example 51] showed an IC50 of under 50 nM.

`Cc1nc(N[C@H](C)c2ccc(-c3ccccc3CN3CCCC3)s2)c2cc(N3CC4CCC(C3)N4)c(=O)n(C)c2n1` [Example 52] returned a 50% inhibitory concentration (IC50) of under 50 nM.

As to `Cc1nc(N[C@H](C)c2ccc(-c3ccccc3CN3CCCC3)s2)c2cc(N3CC4CCC(C3)N4C)c(=O)n(C)c2n1` [Example 53], the half-maximal inhibitory concentration (IC50) was under 50 nM.

Compound `Cc1nc(N[C@H](C)c2ccc(-c3ccccc3CN3CCCC3)s2)c2cc(N3CC4CC(C3)N4)c(=O)n(C)c2n1` [Example 54] returned an IC50 of under 50 nM.

On to `Cc1nc(N[C@H](C)c2ccc(-c3ccccc3CN3CCCC3)s2)c2cc(NC3CCOCC3)c(=O)n(C)c2n1` [Example 55], for which the half-inhibitory concentration (IC50) fell in the range of 50 to 100 nM.

Take `Cc1nc(N[C@H](C)c2ccc(-c3ccccc3CN(C)C)cc2)c2cc(N3CCOCC3)c(=O)n(C)c2n1` [Example 56, (R)-4-((1-(2′-((dimethylamino)methyl))-[1,1′-biphenyl]-4-yl)ethyl) amino-2,8 dimethyl-6-morpholinopyridine [2,3-d] opyrimidin-7 (8H)-one]: 10 nM corresponded to half-maximal inhibition (IC50).

`Cc1nc(N[C@H](C)c2ccc(-c3cnn4c3CN(C)CC4)cc2)c2cc(N3CCOCC3)c(=O)n(C)c2n1` [Example 57] returned an IC50 of 50 to 100 nM.

Turning to `Cc1nc(N[C@H](C)c2ccc(-c3cnccc3CN3CCCC3)cc2)c2cc(N3CCOCC3)c(=O)n(C)c2n1` [Example 58], the IC50 lay within 50 to 100 nM.

In turn, `Cc1nc(N[C@H](C)c2ccc(-c3ccccc3C3(N)CC3)cc2)c2cc(N3CCOCC3)c(=O)n(C)c2n1` [Example 59] returned a half-maximal inhibitory concentration (IC50) of under 50 nM.

Take `Cc1nc(N[C@H](C)c2ccc(-c3cccc4c3CN(C)CC4)cc2)c2cc(N3CCOCC3)c(=O)n(C)c2n1` [Example 60]: the midpoint of inhibition, the IC50, lay at 10 nM.

With `Cc1nc(N[C@H](C)c2sc(-c3cc(F)c(F)cc3CN3CCCC3)cc2F)c2cc(N3CCOCC3)c(=O)n(C)c2n1` [Example 62], the IC50 worked out at 24 nM.

In the case of `Cc1nc(N[C@H](C)c2sc(-c3cnn4c3CN(C)CC4)cc2F)c2cc(N3CCOCC3)c(=O)n(C)c2n1` [Example 63], the IC50 was over 100 nM.

Compound `Cc1nc(N[C@H](C)c2sc(-c3cnccc3CN3CCCC3)cc2F)c2cc(N3CCOCC3)c(=O)n(C)c2n1` [Example 64] registered an IC50 of 50 to 100 nM.

In turn, `Cc1nc(N[C@H](C)c2sc(-c3cccc4c3CN(C)CC4)cc2F)c2cc(N3CCOCC3)c(=O)n(C)c2n1` [Example 65] showed an IC50 of under 50 nM.

Regarding `Cc1nc(N[C@H](C)c2sc(-c3ccccc3C3(N)CC3)cc2F)c2cc(N3CCOCC3)c(=O)n(C)c2n1` [Example 66], the IC50 was under 50 nM.

Compound `Cc1nc(N[C@H](C)c2sc(-c3ccccc3CN(C)C)cc2F)c2cc(N3CCOCC3)c(=O)n(C)c2n1` [Example 67] came in with a half-maximal inhibitory concentration (IC50) of under 50 nM.

As to `Cc1nc(N[C@H](C)c2sc(-c3ccncc3CN3CCCC3)cc2F)c2cc(N3CCOCC3)c(=O)n(C)c2n1` [Example 68], the half-inhibitory concentration (IC50) lay in the range of 50 to 100 nM.

With `Cc1nc(N[C@H](C)c2cc(N)cc(C(F)(F)F)c2)c2cc(N3CCOCC3)c3nccn3c2n1` [Example 69], half-maximal inhibition (IC50) required 232 nM.

Consider `Cc1nc(N[C@H](C)c2cc(N)cc(C(F)(F)F)c2)c2cc(N3CCN(C(C)C)CC3)c3nccn3c2n1` [Example 70], for which the IC50 lay within 50 to 100 nM.

Consider `Cc1nc(N[C@H](C)c2cc(N)cc(C(F)(F)F)c2)c2cc(N3CCN(C4CCCC4)CC3)c3nccn3c2n1` [Example 71], for which inhibition was half-maximal at 166 nM (IC50).

For the compound `Cc1nc(N[C@H](C)c2cc(N)cc(C(F)(F)F)c2)c2cc(N3CC4CCC(C3)N4C)c3nccn3c2n1` [Example 72], the midpoint of inhibition, the IC50, lay at 273 nM.

In turn, `Cc1nc(N[C@H](C)c2cc(N)cc(C(F)(F)F)c2)c2cc(N3CC4CCC(C3)N4C(C)C)c3nccn3c2n1` [Example 73] returned an IC50 of 199 nM.

In turn, `Cc1nc(N[C@H](C)c2cc(N)cc(C(F)(F)F)c2)c2cc(N3CC4CCC(C3)N4C3CCCC3)c3nccn3c2n1` [Example 74] had a half-maximal inhibitory concentration (IC50) of 301 nM.

`COC1(c2cc3c(N[C@H](C)c4cc(N)cc(C(F)(F)F)c4)nc(C)nc3n3ccnc23)CCOCC1` [Example 75] displayed an IC50 of under 50 nM.

`COC1(c2cc3c(N[C@H](C)c4cc(N)cc(C(F)(F)F)c4)nc(C)nc3n3ccnc23)CCN(C(C)=O)CC1` [Example 76] had a concentration for half-maximal inhibition (IC50) of under 50 nM.

Compound `COC1(c2cc3c(N[C@H](C)c4cc(N)cc(C(F)(F)F)c4)nc(C)nc3n3ccnc23)CCS(=O)(=O)CC1` [Example 77] showed an IC50 of under 50 nM.

As for `Cc1nc(N[C@H](C)c2cc(N)cc(C(F)(F)F)c2)c2cc(C3(C#N)CCS(=O)(=O)CC3)c3nccn3c2n1` [Example 78], the concentration for half-maximal inhibition (IC50) is under 50 nM.

`COC1(c2cc3c(N[C@H](C)c4cccc(C(F)(F)F)c4C)nc(C)nc3n3ccnc23)CCOCC1` [Example 79] showed a concentration for half-maximal inhibition (IC50) of under 50 nM.

For the compound `Cc1nc(N[C@H](C)c2cccc(C(F)(F)F)c2C)c2cc(C3(C#N)CCS(=O)(=O)CC3)c3nccn3c2n1` [Example 80], the 50% inhibitory concentration (IC50) was under 50 nM.

With `COC1(c2cc3c(N[C@H](C)c4cccc(C(F)(F)F)c4C)nc(C)nc3n3ccnc23)CCN(C(C)C)CC1` [Example 81], the IC50 was under 50 nM.

`Cc1nc(N[C@H](C)c2cc(N)cc(C(F)(F)F)c2)c2cc(-c3ccc(=O)n(C(C)C)c3)c3nccn3c2n1` [Example 82] came in with an IC50 of 189 nM.

Take `Cc1nc(N[C@H](C)c2cc(N)cc(C(F)(F)F)c2)c2cc(-c3ccc(=O)n(C4CCCC4)c3)c3nccn3c2n1` [Example 83]: half-maximal inhibition (IC50) was put at 245 nM.

For the compound `Cc1nc(N[C@H](C)c2cc(N)cc(C(F)(F)F)c2)c2cc(-c3ccc(=O)n(CC4CCCC4)c3)c3nccn3c2n1` [Example 84], the midpoint of inhibition, the IC50, lay at 251 nM.

Compound `CC(=O)N1CCC(O)(c2cc3c(N[C@H](C)c4cc(N)cc(C(F)(F)F)c4)nc(C)nc3n3ccnc23)CC1` [Example 85, (R)-1-(4-(4-((1-(3-amino-5-(trifluoromethyl)phenyl)ethyl)amino)-2-methylimidazole [1′,2′:1,6]pyrido [2,3-d]pyrimidin-6-yl)-4-hydroxypiperidin-1-yl) ethyl-1-one] came in with a 50% inhibitory concentration (IC50) of 3.5 nM.

Consider `CC(=O)N1CCC(F)(c2cc3c(N[C@H](C)c4cc(N)cc(C(F)(F)F)c4)nc(C)nc3n3ccnc23)CC1` [Example 86], for which the IC50 is under 50 nM.

As for `Cc1nc(N[C@H](C)c2cc(N)cc(C(F)(F)F)c2)c2cc(C3(F)CCOCC3)c3nccn3c2n1` [Example 87], the IC50 was under 50 nM.

As to `Cc1nc(N[C@H](C)c2cc(N)cc(C(F)(F)F)c2)c2cc(C3(F)CCS(=O)(=O)CC3)c3nccn3c2n1` [Example 88], the IC50 is under 50 nM.

`COC1(c2cc3c(N[C@H](C)c4cc(N)cc(C(F)(F)F)c4)nc(C)nc3n3ccnc23)CCN(C(=O)C(C)C)CC1` [Example 89]: the IC50 is under 50 nM.
